47 compounds from PubChem BioAssay AID588591 (National Center for Advancing Translational Sciences (NCATS), 2011) can be followed below.

Out of some 390,000 compounds screened, about 4,700 (1.2%) were called active. About 4% were inconclusive and are not listed. Calls come from the whole dose curve; as a rule, active = well fitted inhibition curve with a large enough effect; inconclusive = small, poorly fitted or top-dose-only effect, or another doubt; inactive = no such curve, though single readings can be large or run the other way. Only a part is listed here, and it is no random draw. More than one record can exist for a structure, and the calls need not agree.
% is set by controls: 0 for no effect and ±100 for the full control effect; potency is the fitted concentration of half-maximal effect.

Chain of UniProt Q9Y253 (Q9Y253 whole entry, looked up): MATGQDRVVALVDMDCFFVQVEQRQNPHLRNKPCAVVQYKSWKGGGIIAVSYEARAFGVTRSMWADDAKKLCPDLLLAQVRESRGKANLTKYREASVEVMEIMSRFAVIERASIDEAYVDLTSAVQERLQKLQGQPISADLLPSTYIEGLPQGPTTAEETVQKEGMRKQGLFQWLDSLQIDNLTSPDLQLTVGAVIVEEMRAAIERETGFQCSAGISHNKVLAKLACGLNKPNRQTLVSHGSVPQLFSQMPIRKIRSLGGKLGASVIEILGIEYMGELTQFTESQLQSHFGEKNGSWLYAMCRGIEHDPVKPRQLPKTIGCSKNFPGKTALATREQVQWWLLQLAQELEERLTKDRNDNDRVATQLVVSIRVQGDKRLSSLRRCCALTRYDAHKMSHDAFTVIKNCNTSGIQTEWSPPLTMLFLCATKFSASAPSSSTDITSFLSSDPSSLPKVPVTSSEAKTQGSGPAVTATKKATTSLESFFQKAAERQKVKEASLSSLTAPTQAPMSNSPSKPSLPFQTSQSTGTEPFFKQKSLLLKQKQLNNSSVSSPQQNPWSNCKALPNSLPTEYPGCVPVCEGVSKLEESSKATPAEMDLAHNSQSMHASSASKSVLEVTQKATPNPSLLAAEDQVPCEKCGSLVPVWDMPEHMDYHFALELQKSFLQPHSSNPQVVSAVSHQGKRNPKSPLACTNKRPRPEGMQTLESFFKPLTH

The target in this experiment is DNA polymerase eta (Homo sapiens) (UniProt Q9Y253). Briefly: qHTS for Inhibitors of Polymerase Eta. The settings on record: recombinant Pol eta, fluorescent DNA replication assay; series mostly up to 114 µM; activity change, negative = inhibition: at the top concentration. A digest of the protocol:
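Pol eta at 10 nM preincubated with compounds 15 min at room temperature; reaction started with fluorescent substrate (50 nM final) and read kinetically at 0 and 10 min.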
On the technique in general: In qHTS, concentration-response curves come from the screen itself.
For `Cc1ccc2occ(C3NC(C(=O)O)CS3)c(=O)c2c1` (configuration not stated), the “activity change, negative = inhibition” value is inactive: -19.4%.
As to `CN(C)C(CNC(=O)c1ccc(OCc2cn3ccccc3n2)cc1)c1ccco1` (configuration not stated), the Potency is active: 39.8 µM.
Regarding `O=C(C1=C(O)C(=O)N(c2ncccn2)C1c1cccs1)c1ccco1` (configuration not stated), the Potency is active: 79.4 µM.
Turning to `CC1=C(C(N)=O)C(c2ccco2)C(C(N)=O)=C(C)N1`, the “activity change, negative = inhibition” value was inactive: -2.31%.
As to `CN(/C=C/C(=C\C=[N+](C)c1ccccc1)OCCCS(=O)(=O)[O-])c1ccccc1`, the “activity change, negative = inhibition” value was inactive: -4.07%.
On to `CCCCN(C)CC(O)Cn1cc(/C=C/C(=O)c2ccc(C)cc2)c2ccccc21` (configuration not stated), for which the “activity change, negative = inhibition” value was inactive: -20%.
Take `Cc1cccc(N=C2NC(=O)/C(=C/C=C/c3ccco3)S2)c1C`: the Potency is active: 1.78 µM.
On to `Cc1onc(-c2ccccc2)c1NC(=O)Nc1ccc(OC(F)F)cc1`, for which the “activity change, negative = inhibition” value is inactive: 30.8%.
For the compound `C[C@H]1CN([C@@H](C)CO)C(=O)c2cc(Br)cnc2O[C@@H]1CN(C)S(=O)(=O)c1ccccc1`, the “activity change, negative = inhibition” value is inactive: -12.7%.
With `CCCC(c1nnnn1Cc1cccs1)N1CCN(C2CCCC2)CC1` (configuration not stated), the “activity change, negative = inhibition” value was inactive: 3.98%.
Regarding `CCOc1ccc(Oc2ccccc2NS(=O)(=O)c2ccc(CCC(=O)O)cc2)cc1`, the Potency is active: 35.5 µM.
Consider `O=C(Cc1ccc(Cl)cc1)NNC1CC(=O)N(c2ccc3ccccc3c2)C1=O` (configuration not stated), for which the “activity change, negative = inhibition” value was inactive: 38.7%.
As to `Cc1nc2ccc(C(=O)O)cc2c2c1CC(C)S2` (configuration not stated), the Potency was active: 2.51 µM.
As to `CCCn1nnc(NC(=O)/C=C/c2ccc(C(C)C)cc2)n1`, the “activity change, negative = inhibition” value is inactive: 36.1%.
On to `COc1ccc(/C=N/NC(=O)c2ccc(NC(=O)c3cccc([N+](=O)[O-])c3)cc2)c(C(=O)O)c1OC`, for which the Potency was active: 79.4 µM.
With `CCC(CC)NC(=O)Cc1ccc(S(=O)(=O)N2CCOCC2)s1`, the Potency is active: 10 µM.
Take `Oc1ccc(NCc2ccc(OCc3ccccc3)cc2)cc1`: the “activity change, negative = inhibition” value is inactive: -6.96%.
For `CCN1/C(=C/C=C/c2oc3ccc4ccccc4c3[n+]2CC)Oc2ccc3ccccc3c21`, the Potency is active: 31.6 µM.
Take `COc1ccc(/C=C/C(=O)OCC(=O)NCc2ccco2)cc1OC`: the Potency was active: 50.1 µM.
As for `CCN1C(=O)/C(=C2/Sc3ccccc3N2CCCS(=O)(=O)O)SC1=S`, the “activity change, negative = inhibition” value is inactive: 6.33%.
In the case of `CC1(C)C2CCC1(C)C(Nc1ccccc1)C2` (configuration not stated), the “activity change, negative = inhibition” value is inactive: 32%.
As to `COc1ccc(C2=NS(=O)(=O)N(C)C(C(=O)Nc3cc(C)ccc3O)=C2)cc1OC`, the “activity change, negative = inhibition” value was inactive: -4.71%.
`O=C1NC(=O)C(c2ccccc2[N+](=O)[O-])=C1Nc1ccc(O)c(Cl)c1`: the “activity change, negative = inhibition” value is inactive: -4.74%.
Take `CN1CCN(c2ccccc2NC(=O)c2ccc(F)cc2)CC1`: the “activity change, negative = inhibition” value was inactive: 31.8%.
In the case of `Oc1ccc(C2CNCCc3c2cc(O)c(O)c3Cl)cc1` (configuration not stated), the Potency result is “inactive”.
On to `O=c1c(C=Nc2cccc(C(F)(F)F)c2)c[nH]n1-c1cccc(Cl)n1`, for which the Potency was active: 89.1 µM.
Turning to `O=C1N=C(N2CCN(c3ccccc3)CC2)S/C1=C/c1ccco1`, the “activity change, negative = inhibition” value is inactive: -16%.
With `NC(=O)CSc1oc(-c2ccco2)nc1S(=O)(=O)c1ccc(Cl)cc1`, the “activity change, negative = inhibition” value is inactive: -20.7%.
As for `CCCc1nc2c(=O)n(C)c(=O)nc-2n(C)n1`, the Potency was active: 0.891 µM.
As to `Cc1ccc(N=C2NC(=O)/C(=C/c3cccs3)S2)cc1C`, the “activity change, negative = inhibition” value is inactive: -14.9%.
Same read-out and setting: the figure for `CCc1ccc(NC(=O)CCn2nc(C)c(S(=O)(=O)N3CCCCC3)c2C)cc1` is inactive: -21.9%; for `C=CC[C@H](CC(=O)N(CCO)Cc1ccccc1)C(=O)N[C@@H](COC(=O)[C@@H](CC=C)Cc1ccc(F)cc1)Cc1ccccc1` it is inactive: -28.9%.
Turning to `Cc1cc(S(=O)(=O)N2CCN(C(=O)CCC(=O)N3CCOCC3)CC2)ccc1Br`, the “activity change, negative = inhibition” value was inactive: 39.9%.
Take `C[C@H](NC(=O)[C@@H]1Cc2ccccc2CN1C(=O)OC(C)(C)C)C(=O)NCc1ccco1`: the “activity change, negative = inhibition” value is inactive: -7.85%.
For the compound `COc1ccccc1/C=C/C=N/n1c(-c2ccc(Cl)cc2)n[nH]c1=S`, the “activity change, negative = inhibition” value is inactive: -7.63%.
As to `COc1cc(/C=N/NC(N)=O)cc([N+](=O)[O-])c1O`, the Potency is active: 50.1 µM.
On the same count and under the same terms, the figure for `COc1ccc(C(=O)NNC(=O)Cc2coc3cc(OC)ccc23)cc1` is active: 20 µM.
As for `CCn1c(SCC(=O)Nc2ccccc2)nnc1-c1cccs1`, the “activity change, negative = inhibition” value was inactive: 43.3%.
In the case of `CCC(C)Sc1ccc([C@@H]2[C@@H]3C(=O)N(CC)C(=O)[C@@H]3[C@]3(C(=O)OC)CCCCN23)cc1` (some centres not stated), the “activity change, negative = inhibition” value was inactive: -11.7%.
For `CC(=O)OCC1=C(C(=O)O)N2C(=O)C(NC(=O)COc3ccc(F)cc3)C2SC1` (configuration not stated), the Potency was active: 8.91 µM.
In the case of `CN(C)c1ccc(/C=C(/C#N)C(=O)Nc2nc3c(s2)CCN(Cc2ccccc2)C3)cc1`, the “activity change, negative = inhibition” value is inactive: -13.6%.
`C[C@@H]1CN([C@@H](C)CO)C(=O)CCCn2nncc2CO[C@@H]1CN(C)C(=O)Nc1cccc(Oc2ccccn2)c1`: the “activity change, negative = inhibition” value was inactive: -14.3%.
`c1ccc(CSc2nnc3ccc(-c4ccco4)nn23)nc1`: the “activity change, negative = inhibition” value was inactive: 33.9%.
For `CCCCN(CC)CCCNC(=O)c1cn(CC(C)C)c(=O)c2c1c1ccccc1n2C`, the “activity change, negative = inhibition” value is inactive: -8.47%.
Turning to `COc1ccc(S(=O)(=O)N2CCCC2c2cccs2)cc1` (configuration not stated), the “activity change, negative = inhibition” value was inactive: 22.6%.
As for `CC(=O)c1cc2c(cc1NC(=O)c1c(C)nn(-c3ccc(C)cc3)c1-n1cccc1)OCO2`, the “activity change, negative = inhibition” value was inactive: 18%.
The same measure, in the same setting: the figure for `COc1ccc(C(=O)Cn2c(N3CCCCC3)nc3c2c(=O)n(C)c(=O)n3C)cc1OC` is inactive: 31.9%.
